Substrate: CCCNS(=O)(=O)Nc1ncnc(OCCOc2ncc(Br)cn2)c1-c1ccc(Br)cc1
Assay: Inhibition of macitentan metabolism (ACT-132577 formation) by bergapten and Michaelis-Menten kinetics in recombinant human CYP3A4
Format: in vitro ADME
Details: other: rCYP3A4
Method: The concentrations of macitentan and ACT-132577 were determined by UPLC-MS/MS, which consisted of an Acquity I-class UPLC system (Waters Corp., Milford, MA, United States) and a Xevo TQD triple quadrupole mass spectrometer (Waters Corporation, Milford, MA, United States) equipped with an electrospray ionization source. Chromatographic separation was performed on an Acquity UPLC BEH C18 column (2.1 × 100 mm, 1.7 μm) at 40°C. The mobile phase was composed of acetonitrile (solvent A) and water containing 0.1% formic acid (solvent B, pH 2.74). The gradient condition of mobile phases was set with a flow rate of 0.4 mL/min as follows: 0–0.5 min, 20% A; 0.5–1 min, 70% A; 1–2 min, 95% A; 2–2.6 min, 20% A. Positive ion and selective multiple reaction monitoring (SRM) modes were used for quantitative analysis with the precursor to product ion transitions of m/z 588.9→203.4 for macitentan, 546.9→200.6 for ACT-132577, and 285.0→193.0 for diazepam. The cone voltage and collision voltage were 28V, 14 V for macitentan, 26V, 28 V for ACT-132577, and 35V, 30 V for diazepam. The mass spectrometry parameters of the source temperature, desolvation temperature, cone gas flow rate, and desolvation gas flow rate were 150°C, 500°C, 50 L/h, and 1000 L/h, respectively.
The effects of BP on macitetan metabolism in vitro were investigated using RLMs, HLMs, and rCYP3A4. […]

B1: recombinant human CYP3A4 (rCYP3A4) (Homo sapiens) (protein)
chain: MALIPDLAMETWLLLAVSLVLLYLYGTHSHGLFKKLGIPGPTPLPFLGNILSYHKGFCMFDMECHKKYGKVWGFYDGQQPVLAITDPDMIKTVLVKECYSVFTNRRPFGPVGFMKSAISIAEDEEWKRLRSLLSPTFTSGKLKEMVPIIAQYGDVLVRNLRREAETGKPVTLKDVFGAYSMDVITSTSFGVNIDSLNNPQDPFVENTKKLLRFDFLDPFFLSITVFPFLIPILEVLNICVFPREVTNFLRKSVKRMKESRLEDTQKHRVDFLQLMIDSQNSKETESHKALSDLELVAQSIIFIFAGYETTSSVLSFIMYELATHPDVQQKLQEEIDAVLPNKAPPTYDTVLQMEYLDMVVNETLRLFPIAMRLERVCKKDVEINGMFIPKGVVVMIPSYALHRDPKYWTEPEKFLPERFSKKNKDNIDPYIYTPFGSGPRNCIGMRFALMNMKLALIRVLQNFSFKPCKETQIPLKLSLGGLLQPEKPVVLKVESRDGTVSGA
notes: made in house
For B1, which Km is on record?
The Km was 13.14 µM.

What about the Vmax of the same protein?
Its Vmax is 2.32 nmol/min/mg protein.
